# B1: G3BP1-NTF2 ([…]) (domain or fragment)
# chain: not shown
# Tests used:
# [1] = biological target: T1, GFP-Caprin-1^356-386 (human); test: BLI
# T1 chain: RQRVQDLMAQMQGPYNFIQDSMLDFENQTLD
# [2] = biological target: T2, GFP-USP10^1-28 (human); test: BLI
# T2 chain: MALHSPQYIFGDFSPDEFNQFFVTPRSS
binder,measurement,setting,value
B1,EC50,[1],180 ± 110 nM
same,EC50,[2],20 ± 10 nM

# Source: paper doi:10.1101/2021.02.05.429362 (bioRxiv, 2021)
